B1: CPEB3 Ribozyme (parent)
chain: UAACAGGGGGCCACAGCAGAAGCGUUCACGUCGCAGCCCCUGUCAGAUUCUGGUGAAUCUGCGAAUUCUGCUGUAUAUCUC

Read counts are not given, so values of variants with three or more changes are uncertain.

In the data set the parent is B1. Kind of data set: self-cleavage, relative activity (ratio to wild type); higher = more cleavage; in vitro, sequencing. A digest of the protocol:
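After error-prone PCR and barcoding, CPEB3 ribozyme mutant libraries were transcribed with T7 RNA polymerase at 37°C for 5 hours, then given 15 min with DNase I before an EDTA stop, and they cleaved during both steps. Reverse transcription with template switching preceded Illumina sequencing. Relative activity divides a variant's cleaved/total read fraction by the unmutated ribozyme's. At least 5 reads were required per variant, and three batches were averaged.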
Regarding UAACAGGGGGCCAUAGCAGAAGCGUUCACGUCGCAGCCCCUGUCAGAUUCUGGUGAAUCUGCGAAUUCCGCUAUAUAUCUC, the self-cleavage amounted to 1.1.

As to UAACAGGGGGCCACCGCAGAAGCGUUCAGGUCGCAGCCCCUGUCAGAUUCCGGUGAAUCUGCGAAUUCUGCUGUAUAUCUC, the self-cleavage came out at 0.23.

On to UAACAGGGGGCCACCGCAGGAGCGUUCACGUCGCAGCCCCUGUCGGAUUCUGGUGAAUCUGCGAAUUCUGUUGUAUAUCUC, for which the self-cleavage came out at 0.38. Under UAACAGGGGGCCACCGCAGGAGCGUUCUCGUCGCAGCCCCUGUCAGACCCUGGUGAAUCUGCGAAUUCUGCUGUAAAUCUC stands 0.06. For UAACAGGGGGCCACCGCAGAUGCGUUCACGUCGCAGCCCCUGUCAGAUUCUGGUGAAUCUGCGAAUUCUGCUGUAUAUCAC, the self-cleavage was 0.56. As for UAACAGGGGGCCAUAGCAGAAGCGUUCACGUCGCAGCCCCUGUCAGAUUCUGGUGAAUCAGCGAAUUCUGCUGUAUAUCCC, the self-cleavage is 0.81. As for UAACAGGGGGCCACCGCAGAAGCGUUCACGUCGCAGCCCCUGUCAGUUUCUGGAGAUUCUGCGAAUUCUGCUAUAUAUCUC, the self-cleavage turned out to be 1.

In the case of UAACAGGGGGCCACCGUAGAAGCGUUCACGUCGCAGGCCCUGACAGAUUCUGGUGAAUCUGCGAAUUCUGCUGUAUAUCUC, the self-cleavage amounted to 0.28.

In the case of UAACAGGGGGCCACCGCGGAGGCGUUCACGUCGCAGCCCCUGUCAGAUUCUGGUGAAUCCGCGAAUACUGCUGUACAUCUC, the self-cleavage worked out at 0.02. On to UAACAGGGGGCCACCGUAGAAGCGUUCACGUCGCAGCCCCUGUCGGAUUCUGGUGAAUCUGCGGAUUCUGCUGUAUAUCUC, for which the self-cleavage was determined as 0.24. As for UAACAGGGGGCCACCGCAGAGGCAUUCCCGUCGCAGCCCCUGUCAGAUUCUGGCGGAUCUGCGAAUUCUGCUGCAUAUCUC, the self-cleavage worked out at 0.03. For UAACAGGGGGCCACCGGAGAAGCGUUUACGUUGCAGCCCCUGCCAGAUUCUGGUGAAUCUGCGAAUUCUGCCGUAUAUCUC, the self-cleavage was 0.09. Take UAACAGGGGGCCAUAGCAGAAGCGUUCACGUCGCAGCCCCUGUCAGAUUCUGGUGAAUCUGCGAAUCCCGCUGGAUAUCUC: the self-cleavage was 0.09.

Take UAACAGGGGGCCACCGCGGAAGCGUUCACGUCGCAGCCCCAGUCAGACUCUGGUGAAUCCGCGAAUUCUGCUGUAUAUCUC: the self-cleavage is 0.35.

Consider UAACAGGGGGCCACCGCAGAAGCGUUCACGUCGCGGCCCCUGACAGAUUCUGGUGAAUCUGCGGAUUCUGCUGUAAAUCUC, for which the self-cleavage worked out at 1.31. Consider UAACAGGGGGCCACCGCAGGAGCGUUCAGGUCGCAGCCCCUGUCAGAUUCCGGUGAAUCUGCGAAUUCUGCUGUAUAUCUC, for which the self-cleavage turned out to be 0.25. UAACAGGGGGCCACCGCAGAAGCGUUCACGUCGCAGCCCCUGUCAGUUUCAGGUGAAUCUGCGAACUCUGCUGUAUAUCUC: the self-cleavage was 0.2. On to UAACAGGGGGCCACCGCAGAGGCGUUCACGUCGCAGCCCCUGACAGAUUCUGGUGAAUCUGCGAAUUCUGCUGUAUAUCUC, for which the self-cleavage was found to be 0.51.

In the case of UAACAGGGGGCCACCGCAGAUGCGCUCACGUCGCAGCCCCUGUCAGAUUCUGGUGAAUCUGCGAACUCUGCUGCAUAUCUC, the self-cleavage came out at 0.07. As for UAACAGGGGGCCACCGCAGACGCGUUCACGUCGCAGCCCCUGUCGGAUUCUGGUGAAUCUGCGAAUUCUGCUGUAUAUCUC, the self-cleavage was 0.17. Next, UAACAGGGGGCCACCGCAGGAGCGAUCACGUCGCAGCCCCUGUCAGAUCCUGGUGAAUCUGCGAAUUCUGCUGUAUAUCCC: 0.44. For the variant UAACAGGGGGCCACCGCAGUAGCGUUCACGUCGCAGCCCCUGUCUGAUUCAGGUGAUUCUGCGAGUCCUGCUGUAUAUCUC, the self-cleavage worked out at 0.04. Take UAACAGGGGGCCACCGCAGAAGCGUUCACGUCGCAGCCCCUGUCGGAUUCUGGUGAAUCCGCGAAUUCUGCUGUAUAUCUC: the self-cleavage is 0.97.

For the variant UAACAGGGGGCCACCGCGGAAGCGUUCACGUCGCAGCCCCUGUCAGAUUCUGGUGAAUCUGCGGAUUCUGCUGUAUAUCUC, the self-cleavage was determined as 0.38.

In the case of UAACAGGGGGCCACCGCAGAGGCGUUCACGUCGCAGCCCCUGUCAGAUUCUGGUGAACCUGCGAAUGCAGCUGUAUACCUC, the self-cleavage came out at 0.

On to UAACAGGGGGCCACCGCAGGAGCGUUCACGUCGCAGUCCCUGUCAGAUUCUGGUGAAUCUGCGAAUCAUGCUGUGUAUCUC, for which the self-cleavage came to 0.09. As to UAACAGGGGGCCACCGCAGAAGCGUUCACGUCGCAGCCCCUGUCAGGUUCUGGUGGAUCUGCGAAUUCUGCUGCUUAUCUC, the self-cleavage amounted to 1.14. Next, UAACAGGGGGCCACCGCAGAAGCGUUCACGUCGCGGCCCCUGCCAGAUUCUGGUGAAUCUGCGAACUCAGCUGUAUAUCUC: 0.14; UAACAGGGGGCCACCGCAGGAGCGUUCACGUCGCAGCCUCUGUCAGAUUCUGGUGAAUCUGCGAAUUCUGCUGUAUAUCUC: 0.5.

UAACAGGGGGCCACCGCAGAAGCGUUCACGUCGCGGCCCCCGUCAGAUUCUGGUGAAUCUGCGAAUUCAGCUGUAUAUCUC: the self-cleavage is 0.71.

As for UAACAGGGGGCCAUAGCAGAAGCGUUCACGUCGCAGCCCCUGUCAGAUUCUGGUGAAUCUGCGAAAUCCGCUGUAUAUCUC, the self-cleavage came to 0.24. For UAACAGGGGGCCAUAGCAGAAGCGUUCACGUCGCAGCCCCUGUCAGAUUCUGGUGAAUCUGCGAAUUCUGCUGUAGAUCCC, the self-cleavage is 1.23.

Consider UAACAGGGGGCCACCGCAGAAGCGUUCACGUCGCCGCCGCUGUCAGAUUCUGGUGAAUCUGCGAAUUCUGCUGCAUAUCUC, for which the self-cleavage was 0.54. In the case of UAACAGGGGGCCACCGCAGAGGCGUUCACGUCGCAGCCCCAGUCAGAUUAUGGUGAAUCUGCGAAUUCUGCUGUAUAUCUC, the self-cleavage was determined as 0.08.

These data come from the RNAGym collection of RNA variant scans (doi:10.1093/nar/gkz1192).
